{"source": "the supplement of paper PMC8728848", "test_in_all_cases": "glycan array binding signal (z-score within array); higher = stronger binding", "settings_in_all_cases": "glycan notation: IUPAC condensed, linker removed", "key": {"[1]": {"biological_target": "Fuc(a1-2)Gal(b1-4)GlcNAc(b1-3)Gal(b1-4)GlcNAc(b1-3)Gal(b1-4)GlcNAc", "outline": "(§1)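 Negative Z-scores can be read as non-binding. The Z-score is calculated within each array and then averaged across arrays of one protein sequence at different concentrations or buffers and across linkers. Arrays, 3228 in all, were curated from the Consortium for Functional Glycomics database and kept only where the protein sequence was available.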"}, "[2]": {"biological_target": "Fuc(a1-2)Gal(b1-4)GlcNAc(b1-3)GalNAc", "outline": "as §1"}, "[3]": {"biological_target": "Fuc(a1-2)Gal(b1-4)GlcNAc(b1-3)[Fuc(a1-2)Gal(b1-4)GlcNAc(b1-6)]GalNAc", "outline": "as §1"}, "[4]": {"biological_target": "Fuc(a1-2)Gal(b1-4)GlcNAc(b1-6)GalNAc", "outline": "as §1"}, "[5]": {"biological_target": "Fuc(a1-2)Gal(b1-4)GlcNAc6S", "outline": "as §1"}, "[6]": {"biological_target": "Fuc(a1-2)Gal(b1-4)[Fuc(a1-3)]GlcNAc", "outline": "as §1"}, "[7]": {"biological_target": "Fuc(a1-2)Gal(b1-4)[Fuc(a1-3)]GlcNAc(b1-2)Man(a1-3)[Fuc(a1-2)Gal(b1-4)[Fuc(a1-3)]GlcNAc(b1-2)Man(a1-6)]Man(b1-4)GlcNAc(b1-4)GlcNAc", "outline": "as §1"}, "[8]": {"biological_target": "Fuc(a1-2)Gal(b1-4)[Fuc(a1-3)]GlcNAc(b1-2)Man(a1-6)[Fuc(a1-2)Gal(b1-4)[Fuc(a1-3)]GlcNAc(b1-2)Man(a1-3)]Man(b1-4)GlcNAc(b1-4)[Fuc(a1-6)]GlcNAc", "outline": "as §1"}, "[9]": {"biological_target": "Fuc(a1-2)Gal(b1-4)[Fuc(a1-3)]GlcNAc(b1-2)[Fuc(a1-2)Gal(b1-4)[Fuc(a1-3)]GlcNAc(b1-4)]Man(a1-3)[Fuc(a1-2)Gal(b1-4)[Fuc(a1-3)]GlcNAc(b1-2)Man(a1-6)]Man(b1-4)GlcNAc(b1-4)GlcNAc", "outline": "as §1"}, "[10]": {"biological_target": "Fuc(a1-2)Gal(b1-4)[Fuc(a1-3)]GlcNAc(b1-3)Gal(b1-4)[Fuc(a1-3)]GlcNAc", "outline": "as §1"}, "[11]": {"biological_target": "Fuc(a1-2)Gal(b1-4)[Fuc(a1-3)]GlcNAc(b1-3)Gal(b1-4)[Fuc(a1-3)]GlcNAc(b1-3)Gal(b1-4)[Fuc(a1-3)]GlcNAc", "outline": "as §1"}, "[12]": {"biological_target": "Fuc(a1-2)Gal(b1-4)[Fuc(a1-3)]GlcNAc(b1-3)GalNAc", "outline": "as §1"}, "[13]": {"biological_target": "Fuc(a1-2)Gal(b1-4)[Fuc(a1-3)]GlcNAc(b1-3)[Neu5Ac(a2-6)Gal(b1-4)GlcNAc(b1-6)]Gal(b1-4)Glc", "outline": "as §1"}, "[14]": {"biological_target": "Fuc(a1-2)Gal6S(b1-3)GlcNAc", "outline": "as §1"}, "[15]": {"biological_target": "Fuc(a1-2)Gal6S(b1-3)GlcNAc6S", "outline": "as §1"}, "Fuc(a1-2)Gal6S(b1-4)Glc": {"biological_target": "Fuc(a1-2)Gal6S(b1-4)Glc", "outline": "as §1"}, "[16]": {"biological_target": "Fuc(a1-2)Gal6S(b1-4)Glc6S", "outline": "as §1"}, "[17]": {"biological_target": "Fuc(a1-2)Gal6S(b1-4)GlcNAc", "outline": "as §1"}, "Fuc(a1-2)[Gal(a1-3)]Gal": {"biological_target": "Fuc(a1-2)[Gal(a1-3)]Gal", "outline": "as §1"}, "[18]": {"biological_target": "Fuc(a1-2)[Gal(a1-3)]Gal(b1-3)GalNAc", "outline": "as §1"}, "[19]": {"biological_target": "Fuc(a1-2)[Gal(a1-3)]Gal(b1-3)GlcNAc", "outline": "as §1"}, "[20]": {"biological_target": "Fuc(a1-2)[Gal(a1-3)]Gal(b1-3)GlcNAc(b1-2)Man(a1-3)[Fuc(a1-2)[Gal(a1-3)]Gal(b1-3)GlcNAc(b1-2)Man(a1-6)]Man(b1-4)GlcNAc(b1-4)GlcNAc", "outline": "as §1"}, "[21]": {"biological_target": "Fuc(a1-2)[Gal(a1-3)]Gal(b1-3)GlcNAc(b1-2)Man(a1-3)[Fuc(a1-2)[Gal(a1-3)]Gal(b1-3)GlcNAc(b1-2)Man(a1-6)]Man(b1-4)GlcNAc(b1-4)[Fuc(a1-6)]GlcNAc", "outline": "as §1"}, "[22]": {"biological_target": "Fuc(a1-2)[Gal(a1-3)]Gal(b1-3)GlcNAc(b1-3)GalNAc", "outline": "as §1"}, "[23]": {"biological_target": "Fuc(a1-2)[Gal(a1-3)]Gal(b1-4)Glc", "outline": "as §1"}, "[24]": {"biological_target": "Fuc(a1-2)[Gal(a1-3)]Gal(b1-4)GlcNAc", "outline": "as §1"}, "[25]": {"biological_target": "Fuc(a1-2)[Gal(a1-3)]Gal(b1-4)GlcNAc(b1-2)Man(a1-3)[Fuc(a1-2)[Gal(a1-3)]Gal(b1-4)GlcNAc(b1-2)Man(a1-6)]Man(b1-4)GlcNAc(b1-4)GlcNAc", "outline": "as §1"}, "[26]": {"biological_target": "Fuc(a1-2)[Gal(a1-3)]Gal(b1-4)GlcNAc(b1-2)Man(a1-3)[Fuc(a1-2)[Gal(a1-3)]Gal(b1-4)GlcNAc(b1-2)Man(a1-6)]Man(b1-4)GlcNAc(b1-4)[Fuc(a1-6)]GlcNAc", "outline": "as §1"}, "[27]": {"biological_target": "Fuc(a1-2)[Gal(a1-3)]Gal(b1-4)GlcNAc(b1-3)GalNAc", "outline": "as §1"}, "[28]": {"biological_target": "Fuc(a1-2)[Gal(a1-3)]Gal(b1-4)GlcNAc(b1-6)GalNAc", "outline": "as §1"}, "[29]": {"biological_target": "Fuc(a1-2)[Gal(a1-3)]Gal(b1-4)[Fuc(a1-3)]Glc", "outline": "as §1"}, "[30]": {"biological_target": "Fuc(a1-2)[Gal(a1-3)]Gal(b1-4)[Fuc(a1-3)]GlcNAc", "outline": "as §1"}, "[31]": {"biological_target": "Fuc(a1-2)[Gal(a1-3)]Gal(b1-4)[Fuc(a1-3)]GlcNAc(b1-3)GalNAc", "outline": "as §1"}, "[32]": {"biological_target": "Fuc(a1-2)[Gal(a1-4)]Gal(b1-4)GlcNAc", "outline": "as §1"}, "[33]": {"biological_target": "Fuc(a1-2)[GalNAc(a1-3)]Gal", "outline": "as §1"}, "[34]": {"biological_target": "Fuc(a1-2)[GalNAc(a1-3)]Gal(b1-3)GalNAc(a1-3)[Fuc(a1-2)]Gal(b1-4)GlcNAc", "outline": "as §1"}, "[35]": {"biological_target": "Fuc(a1-2)[GalNAc(a1-3)]Gal(b1-3)GlcNAc", "outline": "as §1"}}, "note": "The other results are listed elsewhere or left out."}
{"binder": "OrfX (Escherichia coli), Q9X4B6_ECOLX (protein) MIKIARIAVTLGLLSSLGAQAYAAGLVVNDNDLRNDLAWLSDRGVIHLSLSTWPLSQEEIARALKKAKPSYSSEQVVLARINQRLSALKADFRVTGYTSTDQPGTPQGFGQTQPADNSLGLAFNNSGEWWDVHLQGNVEGGERISNGSRFNANGAYGAVKFWNQWLSFGQVPQWWGPGYEGSLIRGDAMRPMTGFLMQRAEQAAPETWWLRWVGPWQYQISASQMNQYTAVPHAKIIGGRFTFTPFQSLELGASRIMQWGGEGRPQSFSSFWDGFTGHDNTGTDNEPGNQLAGFDFKFKLEPTLGWPVSFYGQMVGEDESGYLPSANMFLGGVEGHHGWGKDTVNWYVEAHDTRTNMSRTNYSYTHHIYKDGYYQQGYPLGDAMGGDGQLIAGKVELITEDNQRWSTRLVYAKVNPENQSINKAFPHADTLKGLQLGWSGDVYQSVRLNTSLWYTNANNSDSDDVGASAGIEIPFSL", "values": [{"measurement": "glycan array binding signal (z-score)", "setting": "[1]", "result": -0.266}, {"measurement": "glycan array binding signal (z-score)", "setting": "[2]", "result": -0.189}, {"measurement": "glycan array binding signal (z-score)", "setting": "[3]", "result": 0.429}, {"measurement": "glycan array binding signal (z-score)", "setting": "[4]", "result": -0.061}, {"measurement": "glycan array binding signal (z-score)", "setting": "[5]", "result": -0.226}, {"measurement": "glycan array binding signal (z-score)", "setting": "[6]", "result": 0.036}, {"measurement": "glycan array binding signal (z-score)", "setting": "[7]", "result": 0.202}, {"measurement": "glycan array binding signal (z-score)", "setting": "[8]", "result": 0.689}, {"measurement": "glycan array binding signal (z-score)", "setting": "[9]", "result": -0.108}, {"measurement": "glycan array binding signal (z-score)", "setting": "[10]", "result": -0.147}, {"measurement": "glycan array binding signal (z-score)", "setting": "[11]", "result": -0.02}, {"measurement": "glycan array binding signal (z-score)", "setting": "[12]", "result": 4.3}, {"measurement": "glycan array binding signal (z-score)", "setting": "[13]", "result": -0.235}, {"measurement": "glycan array binding signal (z-score)", "setting": "[14]", "result": -0.184}, {"measurement": "glycan array binding signal (z-score)", "setting": "[15]", "result": 0.634}, {"measurement": "glycan array binding signal (z-score)", "setting": "Fuc(a1-2)Gal6S(b1-4)Glc", "result": -0.214}, {"measurement": "glycan array binding signal (z-score)", "setting": "[16]", "result": 0.009}, {"measurement": "glycan array binding signal (z-score)", "setting": "[17]", "result": -0.201}, {"measurement": "glycan array binding signal (z-score)", "setting": "Fuc(a1-2)[Gal(a1-3)]Gal", "result": -0.329}, {"measurement": "glycan array binding signal (z-score)", "setting": "[18]", "result": -0.162}, {"measurement": "glycan array binding signal (z-score)", "setting": "[19]", "result": -0.133}, {"measurement": "glycan array binding signal (z-score)", "setting": "[20]", "result": -0.295}, {"measurement": "glycan array binding signal (z-score)", "setting": "[21]", "result": -0.247}, {"measurement": "glycan array binding signal (z-score)", "setting": "[22]", "result": -0.143}, {"measurement": "glycan array binding signal (z-score)", "setting": "[23]", "result": -0.382}, {"measurement": "glycan array binding signal (z-score)", "setting": "[24]", "result": -0.179}, {"measurement": "glycan array binding signal (z-score)", "setting": "[25]", "result": -0.19}, {"measurement": "glycan array binding signal (z-score)", "setting": "[26]", "result": -0.047}, {"measurement": "glycan array binding signal (z-score)", "setting": "[27]", "result": -0.295}, {"measurement": "glycan array binding signal (z-score)", "setting": "[28]", "result": -0.144}, {"measurement": "glycan array binding signal (z-score)", "setting": "[29]", "result": -0.132}, {"measurement": "glycan array binding signal (z-score)", "setting": "[30]", "result": -0.297}, {"measurement": "glycan array binding signal (z-score)", "setting": "[31]", "result": -0.091}, {"measurement": "glycan array binding signal (z-score)", "setting": "[32]", "result": -0.32}, {"measurement": "glycan array binding signal (z-score)", "setting": "[33]", "result": -0.116}, {"measurement": "glycan array binding signal (z-score)", "setting": "[34]", "result": -0.154}, {"measurement": "glycan array binding signal (z-score)", "setting": "[35]", "result": 0.002}]}
